Where a name gives a salt, the structure may show the parent alone. Some of the results follow. The data scatter; read single values as rough.
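Note: High-content imaging of ALDEFLUOR-stained cells with Hoechst-labelled nuclei in 384-well plates, triplicate wells, scored as Z-score against 0.1% DMSO vehicle, negative meaning fewer ALDHbr cells.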

For this assay, the system named is MKN45. Kind of assay: ALDHbr (CSC) cell proportion score relative to DMSO vehicle (ratio to DMSO); breast (SUM159) / gastric (MKN45) / pancreatic (PANC1) / colon cancer lines; ALDHbr cells have high ALDH activity and are rich in cancer stem cells (CSC); higher = more CSC (ALDHbr) cells remaining. As to conditions: 10 µM; 72 h.
Regarding `OC(c1cc(C(F)(F)F)nc2c(C(F)(F)F)cccc12)C1CCCCN1` (stereo not given) [Mefloquine hydrochloride], the ALDHbr was determined as 1.13.

Consider `CCN(CC)CC#CCOC(=O)C(O)(c1ccccc1)C1CCCCC1` (stereo not given) [Oxybutynin chloride], for which the ALDHbr turned out to be 0.68.

Consider `CC(c1cc2ccccc2s1)N(O)C(N)=O` (stereo not given) [Zileuton], for which the ALDHbr was determined as 0.827.

On to `C[C@@H](O)[C@H]1C(=O)N2C(C(=O)O)=C(S[C@@H]3CN[C@H](C(=O)N(C)C)C3)[C@H](C)[C@H]12` [Meropenem], for which the ALDHbr was 1.06.

For the molecule `COc1ccc(C[C@@H]2c3cc(OC)c(OC)cc3CC[N@+]2(C)CCC(=O)OCCCCCOC(=O)CC[N@@+]2(C)CCc3cc(OC)c(OC)cc3[C@H]2Cc2ccc(OC)c(OC)c2)cc1OC` [Cisatracurium besylate], the ALDHbr stood at 0.66.

In the case of `CC(CCc1ccccc1)NCC(O)c1ccc(O)c(C(N)=O)c1` (stereo not given) [Labetalol hydrochloride], the ALDHbr amounted to 1.24.

Regarding `CC1=C(C(=O)O)N2C(=O)[C@@H](NC(=O)[C@H](N)c3ccc(O)cc3)[C@H]2SC1` [Cefadroxil], the ALDHbr was determined as 0.999.

Take `Clc1ccc(CCC(Cn2ccnc2)Sc2c(Cl)cccc2Cl)cc1` (stereo not given) [Butoconazole nitrate]: the ALDHbr is 0.513.

`CCC[C@@H]1C[C@@H](C(=O)N[C@@H]([C@H]2O[C@H](SC)[C@H](O)[C@@H](O)[C@H]2O)[C@@H](C)O)N(C)C1` [Lincomycin hydrochloride]: the ALDHbr came out at 1.03.

Consider `Cc1ccsc1/C=C/C1=NCCCN1C` [Morantel tartrate], for which the ALDHbr was determined as 1.15.

In the case of `N#Cc1cc(NC(=O)C(=O)O)c(Cl)c(NC(=O)C(=O)O)c1` [Lodoxamide], the ALDHbr stood at 1.06.

In the case of `CC(C)c1ccc2oc3nc(N)c(C(=O)O)cc3c(=O)c2c1` [Amlexanox], the ALDHbr stood at 0.869.

With `CC(C)(S)C(N)C(=O)O` (racemic) [D,L-Penicillamine], the ALDHbr is 1.06.

With `CC(C)NCC(O)c1ccc(NS(C)(=O)=O)cc1` (stereo not given) [Sotalol hydrochloride], the ALDHbr came to 1.02.

On to `Cc1oncc1C(=O)Nc1ccc(C(F)(F)F)cc1` [Leflunomide], for which the ALDHbr was determined as 0.745.

In the case of `Cc1ccc(Cl)c(Nc2ccccc2C(=O)O)c1Cl` [Meclofenamic acid sodium salt monohydrate], the ALDHbr came out at 1.06.

With `CC12CC3CC(C)(C1)CC(N)(C3)C2` [Memantine Hydrochloride], the ALDHbr worked out at 1.15.

`O=C(COc1ccc(Cl)cc1)N1CCN(Cc2ccc3c(c2)OCO3)CC1` [Fipexide hydrochloride]: the ALDHbr was 0.715.

As for `CC(=O)Oc1ccccc1C(=O)O` [Acetylsalicylic acid], the ALDHbr was determined as 1.06.

Take `CN1C(C(=O)Nc2ccccn2)=C(O)c2ccccc2S1(=O)=O` [Piroxicam]: the ALDHbr stood at 1.04.

Regarding `c1ccc(CNc2ncnc3nc[nH]c23)cc1` [Aminopurine, 6-benzyl], the ALDHbr was determined as 0.947.

Take `COc1cccc(OC)c1C(=O)N[C@@H]1C(=O)N2[C@@H]1SC(C)(C)[C@@H]2C(=O)O` [Methicillin sodium]: the ALDHbr stood at 1.07.

Take `Cc1ccccc1C(=O)Nc1ccc(C(=O)N2CCCC(O)c3cc(Cl)ccc32)c(C)c1` (stereo not given) [Tolvaptan]: the ALDHbr was determined as 1.49.

For the molecule `COc1ccc2c3c1O[C@H]1C[C@@H](O)C=C[C@@]31CCN(C)C2` [Galanthamine hydrobromide], the ALDHbr worked out at 1.02.

Take `CCCCOc1cc(C(=O)NCCN(CC)CC)c2ccccc2n1` [Dibucaine]: the ALDHbr turned out to be 1.25.

`Cc1ccc2c(c1)c1c3n2CCNC3CCC1` (stereo not given) [Pirlindole mesylate]: the ALDHbr came out at 1.23.

Turning to `CCCCc1cc2ccccc2c(OCCN(C)C)n1` [Dimethisoquin hydrochloride], the ALDHbr worked out at 0.815.

In the case of `CN[C@@H]1[C@@H](O)[C@@H](O[C@@H]2[C@@H](O)[C@H](O[C@H]3OC(CN)=CC[C@H]3N)[C@@H](N)C[C@H]2N)OC[C@]1(C)O` [Sisomicin sulfate], the ALDHbr was 0.892.

`CCCCCN(C)CCC(O)(P(=O)(O)O)P(=O)(O)O` [Ibandronate sodium]: the ALDHbr came out at 0.697.

Consider `CO[C@H]1/C=C/O[C@@]2(C)Oc3c(C)c(O)c4c(O)c(c(/C=N/N5CCN(C)CC5)c(O)c4c3C2=O)NC(=O)/C(C)=C\C=C\[C@H](C)[C@H](O)[C@@H](C)[C@@H](O)[C@@H](C)[C@H](OC(C)=O)[C@@H]1C` [Rifampicin], for which the ALDHbr was determined as 1.15.

In the case of `C[C@@H]1CN(c2c(F)c(N)c3c(=O)c(C(=O)O)cn(C4CC4)c3c2F)C[C@H](C)N1` [Sparfloxacin], the ALDHbr came to 1.07.

Turning to `CCN(CC)C(=O)N1CCN(C)CC1` [Diethylcarbamazine citrate], the ALDHbr came to 1.07.

On to `Nc1cc(C(Cl)=C(Cl)Cl)c(S(N)(=O)=O)cc1S(N)(=O)=O` [Clorsulon], for which the ALDHbr worked out at 0.968.

For the molecule `CN1C(=O)OC(C)(C)C1=O` [Trimethadione], the ALDHbr came to 0.924.

Take `CO[C@@]1(NC(=O)Cc2cccs2)C(=O)N2C(C(=O)O)=C(COC(N)=O)CS[C@@H]21` [Cefoxitin sodium salt]: the ALDHbr stood at 0.792.

Regarding `CC1CCc2cc(F)cc3c(=O)c(C(=O)O)cn1c23` (stereo not given) [Flumequine], the ALDHbr turned out to be 1.02.

In the case of `CCOC(=O)O[C@]1(C(=O)OCCl)CC[C@H]2[C@@H]3CCC4=CC(=O)C=C[C@]4(C)[C@H]3[C@@H](O)C[C@@]21C` [Loteprednol etabonate], the ALDHbr was 0.983.

Take `CC(C)OC(=O)CCC/C=C\C[C@@H]1[C@@H](CC[C@@H](O)CCc2ccccc2)[C@H](O)C[C@@H]1O` [Latanoprost]: the ALDHbr was 0.84.

As for `Cc1cn([C@H]2C[C@H](N=[N+]=[N-])[C@@H](CO)O2)c(=O)[nH]c1=O` [Zidovudine, AZT], the ALDHbr came to 1.17.

Consider `CC(C)(C)NCC(O)COc1cccc2c1CC(O)C(O)C2` (stereo not given) [Nadolol], for which the ALDHbr worked out at 0.907.

Source of the values: the supplement of paper PMC11880418.
